What was measured:
Type in all cases: in vivo
[1] = system: Alternaia brassicicola; assay: Test Example C: Alternaria sooty spot on cabbage; conditions: for Test C control value: Alternaria sooty spot on cabbage; for Test C control value (Alternaria sooty spot on cabbage): class of control value, Table 7; for control value, Test C (Alternaria sooty spot on cabbage): Table 7, Test C
[2] = system: Botrytis cinerea; assay: Test Example B: Gray mold on tomato; conditions: for Test B control value: Gray mold on tomato; for Test B control value (gray mold on tomato): class of control value, Table 7; for control value, Test B (gray mold on tomato): Table 7, Test B
[3] = system: Plasmopara viticola; assay: Test Example G: Downy mildew on vine; conditions: for Test G control value: Downy mildew on vine, 250 ppm sprayed, 7 to 10 days after inoculation; for Test G control value / Test G control value (downy mildew on vine): 2.5 ml/pot; for Test G control value (downy mildew on vine): 250 ppm spray, investigated 7 to 10 days after inoculation; for control value, Test G (downy mildew on vine): 250 ppm sprayed (2.5 ml/pot) before inoculation, assessed 7 to 10 days after inoculation
[4] = system: Blumeria graminis f. sp. hordei; assay: Test Example D: Powdery mildew on barley; conditions: for Test D control value: Powdery mildew on barley; for Test D control value (powdery mildew on barley): class of control value, Table 7; for control value, Test D (powdery mildew on barley): Table 7, Test D
[5] = system: Puccinia recondita; assay: Test Example E: Brown rust on wheat; conditions: for Test E control value: Brown rust on wheat; for Test E control value (brown rust on wheat): class of control value, Table 7; for control value, Test E (brown rust on wheat): Table 7, Test E

Structure (SMILES) | Test C control value [1] | Test B control value [2] | Test G control value [3] | Test D control value [4] | Test E control value [5] | Test C control value (Alternaria sooty spot on cabbage) [1] | Test B control value (gray mold on tomato) [2] | Test G control value (downy mildew on vine) [3] | Test D control value (powdery mildew on barley) [4] | Test E control value (brown rust on wheat) [5] | also measured
CCn1c(-c2ccccc2Cl)c(-n2cc(Cl)cn2)cc(Br)c1=O [Compound 173] | H (H shows the control value more than 50%) | H (H shows the control value more than 50%) | L (L shows the control value of 50% or less) | H (H shows the control value more than 50%) | H (H shows the control value more than 50%) |  |  |  |  |  | 
CCn1c(-c2c(F)cccc2F)c(-c2ccsc2C)cc(Br)c1=O [Compound 444] |  |  |  |  |  | H (H shows the control value more than 50%) | L (L shows the control value of 50% or less) | L (L shows the control value of 50% or less) | L (L shows the control value of 50% or less) | H (H shows the control value more than 50%) | 
CCn1c(-c2c(F)cccc2F)c(-c2ccsc2Br)cc(Br)c1=O [Compound 54] | H (H shows the control value more than 50%) | H (H shows the control value more than 50%) | L (L shows the control value of 50% or less) | H (H shows the control value more than 50%) | H (H shows the control value more than 50%) |  |  |  |  |  | 
Cc1cnn(-c2cc(Cl)c(=O)n(CC(F)F)c2-c2ccccc2Br)c1Cl [Compound 407] |  |  |  |  |  | H (H shows the control value more than 50%) | H (H shows the control value more than 50%) | L (L shows the control value of 50% or less) | H (H shows the control value more than 50%) | H (H shows the control value more than 50%) | 
CCn1c(-c2c(F)cccc2F)c(-c2cnc(OC)o2)cc(Cl)c1=O [Compound 130] | H (H shows the control value more than 50%) | L (L shows the control value of 50% or less) | L (L shows the control value of 50% or less) | L (L shows the control value of 50% or less) | L (L shows the control value of 50% or less) |  |  |  |  |  | 
CCn1c(-c2c(F)cc(OC)cc2F)c(-n2cc(Br)cn2)cc(Br)c1=O [Compound 78] | H (H shows the control value more than 50%) | H (H shows the control value more than 50%) | L (L shows the control value of 50% or less) | H (H shows the control value more than 50%) | H (H shows the control value more than 50%) |  |  |  |  |  | 
CCn1c(-c2c(F)cccc2F)c(-c2sccc2Br)cc(Cl)c1=O [Compound 365] |  |  |  |  |  |  |  |  |  |  | control value, Test C (Alternaria sooty spot on cabbage) [1]: H (H shows the control value more than 50%); control value, Test B (gray mold on tomato) [2]: H (H shows the control value more than 50%); control value, Test G (downy mildew on vine) [3]: H (H shows the control value more than 50%); control value, Test D (powdery mildew on barley) [4]: H (H shows the control value more than 50%); control value, Test E (brown rust on wheat) [5]: H (H shows the control value more than 50%)
CCn1c(-c2c(F)cc(F)cc2F)c(-n2cc(I)cn2)cc(Cl)c1=O [Compound 160] | H (H shows the control value more than 50%) | H (H shows the control value more than 50%) | L (L shows the control value of 50% or less) | L (L shows the control value of 50% or less) | L (L shows the control value of 50% or less) |  |  |  |  |  | 
CCn1c(-c2ccc(F)cc2F)c(-n2cc(Cl)cn2)cc(Br)c1=O [Compound 150] | H (H shows the control value more than 50%) | H (H shows the control value more than 50%) | L (L shows the control value of 50% or less) | H (H shows the control value more than 50%) | H (H shows the control value more than 50%) |  |  |  |  |  | 
Cc1cnn(-c2ccc(=O)n(CC(F)F)c2-c2ccc(F)cc2Cl)c1 [Compound 342] |  |  |  |  |  |  |  |  |  |  | control value, Test C (Alternaria sooty spot on cabbage) [1]: H (H shows the control value more than 50%); control value, Test B (gray mold on tomato) [2]: H (H shows the control value more than 50%); control value, Test G (downy mildew on vine) [3]: L (L shows the control value of 50% or less); control value, Test D (powdery mildew on barley) [4]: H (H shows the control value more than 50%); control value, Test E (brown rust on wheat) [5]: H (H shows the control value more than 50%)
CCn1c(-c2c(F)cc(F)cc2F)c(-n2cc(Cl)cn2)ccc1=S [Compound 185] |  |  |  |  |  |  |  |  |  |  | control value, Test C (Alternaria sooty spot on cabbage) [1]: L (L shows the control value of 50% or less); control value, Test B (gray mold on tomato) [2]: H (H shows the control value more than 50%); control value, Test G (downy mildew on vine) [3]: L (L shows the control value of 50% or less); control value, Test D (powdery mildew on barley) [4]: H (H shows the control value more than 50%); control value, Test E (brown rust on wheat) [5]: H (H shows the control value more than 50%)
Cn1c(-c2c(F)cccc2F)c(-n2cc(F)cn2)ccc1=O [Compound 413] |  |  |  |  |  | L (L shows the control value of 50% or less) | H (H shows the control value more than 50%) | L (L shows the control value of 50% or less) | H (H shows the control value more than 50%) | L (L shows the control value of 50% or less) | 
Cn1c(-c2ccc(F)cc2F)c(-n2cc(F)cn2)cc(Br)c1=O [Compound 465] |  |  |  |  |  | H (H shows the control value more than 50%) | H (H shows the control value more than 50%) | L (L shows the control value of 50% or less) | L (L shows the control value of 50% or less) | H (H shows the control value more than 50%) | 
CCn1c(-c2ccccc2Cl)c(-n2cc(Cl)cn2)ccc1=O [Compound 169] | H (H shows the control value more than 50%) | H (H shows the control value more than 50%) | L (L shows the control value of 50% or less) | H (H shows the control value more than 50%) | H (H shows the control value more than 50%) |  |  |  |  |  | 
CNn1c(-c2c(F)cccc2F)c(-n2ncc(C)c2Cl)cc(Br)c1=O [Compound 475] |  |  |  |  |  | H (H shows the control value more than 50%) | H (H shows the control value more than 50%) | H (H shows the control value more than 50%) | H (H shows the control value more than 50%) | H (H shows the control value more than 50%) | 
Cn1c(-c2c(F)cccc2F)c(-n2cc(F)cn2)cc(Br)c1=O [Compound 462] |  |  |  |  |  | H (H shows the control value more than 50%) | H (H shows the control value more than 50%) | L (L shows the control value of 50% or less) | H (H shows the control value more than 50%) | H (H shows the control value more than 50%) | 
CCn1c(-c2ccc(F)cc2Cl)c(-c2ccsc2Cl)cc(Cl)c1=O [Compound 460] |  |  |  |  |  | H (H shows the control value more than 50%) | H (H shows the control value more than 50%) | H (H shows the control value more than 50%) | H (H shows the control value more than 50%) | H (H shows the control value more than 50%) | 
O=c1c(Br)cc(-c2ccsc2Br)c(-c2c(F)cccc2F)n1CC(F)F [Compound 346] |  |  |  |  |  |  |  |  |  |  | control value, Test C (Alternaria sooty spot on cabbage) [1]: H (H shows the control value more than 50%); control value, Test B (gray mold on tomato) [2]: H (H shows the control value more than 50%); control value, Test G (downy mildew on vine) [3]: H (H shows the control value more than 50%); control value, Test D (powdery mildew on barley) [4]: H (H shows the control value more than 50%); control value, Test E (brown rust on wheat) [5]: H (H shows the control value more than 50%)
CCn1c(-c2c(F)cc(F)cc2F)c(-n2cc(F)cn2)ccc1=O [Compound 191] |  |  |  |  |  |  |  |  |  |  | control value, Test C (Alternaria sooty spot on cabbage) [1]: H (H shows the control value more than 50%); control value, Test B (gray mold on tomato) [2]: H (H shows the control value more than 50%); control value, Test G (downy mildew on vine) [3]: L (L shows the control value of 50% or less); control value, Test D (powdery mildew on barley) [4]: H (H shows the control value more than 50%); control value, Test E (brown rust on wheat) [5]: H (H shows the control value more than 50%)
CCn1c(-c2ccccc2C#N)c(-n2cc(C)cn2)cc(Br)c1=O [Compound 471] |  |  |  |  |  | H (H shows the control value more than 50%) | L (L shows the control value of 50% or less) | L (L shows the control value of 50% or less) | L (L shows the control value of 50% or less) | L (L shows the control value of 50% or less) | 
CCn1c(-c2c(F)cc(F)cc2F)c(-n2cc(C(F)(F)F)cn2)cc(C(F)(F)F)c1=O [Compound 154] | L (L shows the control value of 50% or less) | L (L shows the control value of 50% or less) | L (L shows the control value of 50% or less) | L (L shows the control value of 50% or less) | L (L shows the control value of 50% or less) |  |  |  |  |  | 

Reference: US11178870B2 (priority 2017, dated 2021)
